In PubChem BioAssay AID1645887 (National Center for Advancing Translational Sciences (NCATS), 2021):
Several values for one entry are separate records, joined by “and”; a condition that tells them apart may be missing. Equal values may be shown once. Out of some 16,000 compounds screened, about 40 (0.2%) were called active. Not shown: some 1% with an inconclusive outcome. Calls come from the whole dose curve; as a rule, active = well fitted activation curve with a large enough effect; inconclusive = small, poorly fitted or top-dose-only effect, or another doubt; inactive = no such curve, though single readings can be large or run the other way. The list shows a part of the results.

biological target: Rap guanine nucleotide exchange factor 4 (Homo sapiens) (UniProt Q8WZA2); assay: Validation qHTS for agonist of cAMP-regulated guanine nucleotide exchange factor 4 (EPAC2); details: EPAC2 Rap1B BODIPY-GDP exchange, fluorescence; activation: stronger effect = higher value;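 note: exchange makes BODIPY-GDP fluorescence drop when released from Rap1B; series mostly up to about 150 µM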
Method in brief: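 Signal normalized against 6.5 mM cAMP as agonist control. Mix of EPAC2 (100 nM), RAP1B-BODIPY-GDP (250 nM) and GDP (50 uM) was read kinetically at 480/540 nm, every 5 min over 30 min, after 5 min room-temperature incubation with compound.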
% is set by controls: 0 for no effect and ±100 for the full control effect.

UniProt Q8WZA2, sequence (Q8WZA2 whole entry, looked up): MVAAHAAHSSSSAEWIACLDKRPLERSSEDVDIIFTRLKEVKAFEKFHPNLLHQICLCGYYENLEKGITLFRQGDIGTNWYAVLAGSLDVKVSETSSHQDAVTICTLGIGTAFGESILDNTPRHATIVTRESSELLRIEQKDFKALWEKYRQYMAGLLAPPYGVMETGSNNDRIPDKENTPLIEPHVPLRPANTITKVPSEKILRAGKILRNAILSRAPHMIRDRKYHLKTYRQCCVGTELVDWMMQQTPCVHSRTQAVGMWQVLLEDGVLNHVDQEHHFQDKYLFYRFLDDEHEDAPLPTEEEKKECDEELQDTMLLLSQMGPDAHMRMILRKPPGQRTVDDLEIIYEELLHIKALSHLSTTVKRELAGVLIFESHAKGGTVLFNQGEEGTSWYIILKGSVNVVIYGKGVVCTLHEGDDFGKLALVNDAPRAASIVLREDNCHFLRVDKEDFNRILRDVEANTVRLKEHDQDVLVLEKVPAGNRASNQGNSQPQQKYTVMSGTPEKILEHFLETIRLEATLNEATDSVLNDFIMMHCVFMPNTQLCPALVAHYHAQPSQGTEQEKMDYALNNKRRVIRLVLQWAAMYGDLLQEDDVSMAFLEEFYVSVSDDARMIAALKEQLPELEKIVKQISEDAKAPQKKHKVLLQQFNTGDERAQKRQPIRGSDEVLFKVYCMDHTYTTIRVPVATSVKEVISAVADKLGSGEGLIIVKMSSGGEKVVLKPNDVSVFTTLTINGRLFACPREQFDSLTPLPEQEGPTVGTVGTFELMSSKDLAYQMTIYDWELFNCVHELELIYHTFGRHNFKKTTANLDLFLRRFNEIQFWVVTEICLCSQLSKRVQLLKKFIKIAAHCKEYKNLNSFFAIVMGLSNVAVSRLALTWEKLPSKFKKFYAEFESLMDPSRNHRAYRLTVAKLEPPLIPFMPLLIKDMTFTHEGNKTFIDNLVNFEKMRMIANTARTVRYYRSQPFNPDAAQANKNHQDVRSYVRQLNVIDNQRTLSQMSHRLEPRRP

activation, inactive:
COC(=O)[C@@H]1CCCN1C(=O)c1c(OC)cc(=O)n2c1CCN(Cc1ccc3cccnc3c1)CC2 -13.9%
NCCc1ccn[nH]1 -15.3%
COc1ccc(/C=C/C(=O)c2cccs2)cc1OC -0.0267%
C[N+]12CCC(CC1)C(OC(=O)C(O)(c1ccccc1)c1ccccc1)C2 (stereo unspecified) -7.78% and -13.7%
CN(C)C(=O)c1ccc(-c2cncnc2N2CCNCC2)cc1 -0.757%
COC(=O)[C@@H]1CCCN1Cc1ccc2c(c1)CN(Cc1ccc(OC)c(C)c1)CCO2 -7.08%
Nc1ncnc2c1nc(Br)n2C1OC(CO)C(O)C1O (stereo unspecified) -0.2%
O=C(c1cc(C(F)(F)F)cc(C(F)(F)F)c1)N1CCC2(CC1)CN(c1ccncc1)C2 -10.3%
Nc1ncnc2c1ncn2[C@@H]1O[C@H](COP(=O)(O)O)[C@@H](O)[C@H]1O 9.28%
O=C1CCN(Cc2ccccc2)CCN1[C@H](COc1ccccc1)Cc1ccccc1 -36.9%
CCC(=O)O[C@H]1[C@H](O[C@@H]2[C@@H](C)[C@H](O[C@H]3C[C@@](C)(OC)[C@@H](O)[C@H](C)O3)[C@@H](C)C(=O)O[C@H](CC)[C@@](C)(O)[C@H](O)[C@@H](C)C(=O)[C@H](C)C[C@@]2(C)O)O[C@H](C)C[C@@H]1N(C)C -57.1%
O=C(NCCN1CCOCC1)c1cnn(-c2nccc(-c3cc4ccccc4o3)n2)c1C1CC1 -3.65%
NC(=O)c1ccc(-c2nc(-c3ccc4c(c3)OCO4)c(-c3ccccn3)[nH]2)cc1 -5.42%
COc1ccc(/C=C/C(=O)N2CCc3c(cnc(C)c3CNS(=O)(=O)c3cccs3)C2)cc1 11.1%
Cc1ccc(S[C@@H](CCN2CC[C@H](C(C)(C)C)CCC2=O)c2ccccc2)cc1 -6.01%
Cc1nc2cncnc2n(Cc2ccccc2)c1=O -6.53%
COCC(=O)N1CCC2(CCCN(C(=O)Nc3cccc(C#N)c3)C2)CC1 -11.3%
CC(=O)Oc1cc(C(C)C)c(OCCN(C)C)cc1C -30.2% and -26.3%
CCn1c(C)nc2cc(NS(=O)(=O)c3ccccc3)cc(C(=O)N3C[C@@H](C)O[C@@H](C)C3)c21 -0.794%
NS(=O)(=O)c1ccc(NC(=O)CCC(=O)O)cc1 -0.157%
O=C(O)c1cc(O)c2c(c1)[C@H]([C@H]1c3cc(C(=O)O)cc(O)c3C(=O)c3c(O[C@@H]4O[C@H](CO)[C@@H](O)[C@H](O)[C@H]4O)cccc31)c1cccc(O[C@@H]3O[C@H](CO)[C@@H](O)[C@H](O)[C@H]3O)c1C2=O -17.4%
COc1cccc(-c2ccc3ncnc(NC4CCNCC4)c3c2)c1 -10.8%
Cn1c(SCC2CCCO2)nnc1C1CCN(Cc2ccco2)CC1 (stereo unspecified) -3.37%
CC(=O)N1CCC[C@H]1C(=O)N1CCc2c(cnc(C)c2CNC(=O)/C=C/c2cccs2)C1 -2.81%
COc1cccc(C(=O)NCC2Cc3cccc(-c4ncccn4)c3O2)c1OC (stereo unspecified) -16%
CC[N+](C)(CC)CC(=O)Nc1c(C)cccc1C -10.2%
Cc1cccc(C)c1NC(=O)NC1=CCCN1C -7.65%
CC(C)CN1CCC2(CC1)CCN(S(=O)(=O)c1ccccc1)CC2 -8.17%
CC(c1cc2ccccc2s1)N(O)C(N)=O (stereo unspecified) 5.47%
COc1ccccc1CN1CCC2(CC1)CCN(C(=O)c1cc(C(F)(F)F)cc(C(F)(F)F)c1)CC2 -25.7%
COc1ccc(-n2c(=O)cnc3cnc(OC)nc32)cc1 -8.13%
N#CCCn1c(=O)c(-c2cc(F)cc(F)c2)nc2cnc(OCc3ccccc3)nc21 -11.8%
COc1ccc(-c2nc3cnc(N(C)C)nc3n(C[C@H]3CCCO3)c2=O)cc1 0.561%
Nc1ccn(C[C@@H](CO)OCP(=O)(O)O)c(=O)n1 -6.59%
COc1cc(O)c(C(C)=O)c(OC)c1 -10.6%
O=C(c1cnccn1)N1CCC2(CCCN(c3ccccc3)C2)CC1 1.28%
Cc1ccccc1N=C1Nc2ccccc2N[C@]12C[C@H]1CCCC(=O)N3CC[C@@H](C2)[C@@H]13 -3.8%
CC[C@@H]1CN2CCc3cc(OC)c(OC)cc3[C@@H]2C[C@@H]1C[C@H]1NCCc2cc(OC)c(OC)cc21 -4.51%
CN1CCCC(CN2c3ccccc3Sc3ccccc32)C1 (stereo unspecified) -8.13%
COc1ccccc1CN1Cc2cccc3c2[C@@H](CC1=O)[C@H](O)[C@H](O)C3 -23%
O=C1c2ccccc2C(=O)c2c(NCCc3ccc(O)cc3)ccc(NCCc3ccc(O)cc3)c21 5.93%
COc1cc2c(cc1OC)C1C(=O)c3ccc4c(c3OC1CO2)C=CC(C)(C)O4 (stereo unspecified) -2.97%
CCCS(=O)(=O)NCc1c(C)ncc2c1CCN(C(=O)c1cccc(Cl)c1F)C2 -0.408%
CN(C)C1CCC(CC2CCc3ccccc32)CC1 (stereo unspecified) -13.8%
N#Cc1ccc(CN2CC[C@@]3(CCCN(C(=O)c4cnccn4)C3)C2)cc1 -8.6%
N#CCCn1c(=O)c(-c2cc(F)cc(F)c2)nc2cnc(N3CCOCC3)nc21 -0.196%
C=CC(COCc1ccccc1)N([C@@H](Cc1ccccc1)C(=O)OC)S(=O)(=O)c1ccccc1Br (stereo partly specified) -15.9%
O=c1c(-c2ccc(F)cc2)nc2cnc(N3CCNCC3)nc2n1Cc1cccs1 11.6%
O=C1CCN(Cc2ccc([N+](=O)[O-])cc2)CCN1CCO -10.8%
O=C(NC1CCCCC1)[C@@H]1CC=C[C@@H]2CCN(C3CCCCC3)C(=O)[C@@H]21 1.62%
COc1ccc(CN2CCC(=O)N([C@H](CO)c3ccccc3)CC2)cc1OC -3.29%
